For orientation: Kd means the constant that tells how readily two partners part at equilibrium. A low value points to a tighter complex. A word on the koff: it is the first-order rate constant of dissociation. A low value points to a long-lived complex. By kon is commonly meant a measure of how fast the partners come together. Lower therefore signals slower complex formation. In general, EC50 refers to the concentration giving half of the maximal effect. A higher EC50 goes with a less potent agent.

This is an account of results in patent US20230058519A1 (SHANGHAI CELL THERAPY GROUP, published 2023).

In one assay the target is T1, BCMA-His antigen (UniProt Q02223 1-54).
T1 construct: also called BMCA antigen
T1 sequence (looked up): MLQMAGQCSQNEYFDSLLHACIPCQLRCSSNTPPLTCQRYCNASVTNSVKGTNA
The assay can be described thus: SPR, BCMA-his coupled on CM5 chip, TCP as analyte, 1:1 fit. The method, then:
First the binding affinity of the purified BCMA-TCPs against BMCA antigen was assessed by SPR. BCMA-his antigen was coupled onto a CM5 chip (GE Healthcare Life Sciences), and then a variety of anti-BCMA BsAbs were flowed at the flow rate of 10 uL/min with dissociation time of 900s. Binding kinetics were determined with a 1:1 fit model.
(In SPR one partner is held on a chip, and binding of the other changes the refractive index at the surface.)

The next assay deals with T2, BCMA expressed on cells (UniProt Q02223 1-184, limits assumed).
T2 construct: whole, on cells; also called CHOK1-BCMA cell line; BCMA over-expression cell line
T2 sequence (looked up): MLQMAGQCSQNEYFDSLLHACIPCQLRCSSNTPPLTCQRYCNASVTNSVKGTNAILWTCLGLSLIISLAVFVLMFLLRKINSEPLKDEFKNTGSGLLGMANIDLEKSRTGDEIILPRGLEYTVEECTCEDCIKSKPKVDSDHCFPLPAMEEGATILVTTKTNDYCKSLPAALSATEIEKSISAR
Nature of the assay: flow cytometry on CHOK1-BCMA+ cells; unit taken from the axis 'Conc.(nM)'. The method, then: The binding bioactivity for mesothelin and BCMA over-expressing cells was evaluated by flow cytometry. Stable cell lines were harvested using 0.25% Trypsin.
About 5E5 cells were collected per sample, and the cells were resuspended in 100 μL/well tested antibodies with His-tag. Then the cells were incubated with anti-His-tag antibody (Genscript, China) and Streptavidin-PE (Biolegend, China). The incubation step of each step was performed at 4° C. in the dark for 1 hr, and then the cells were washed 2× with 200 μL PBS buffer. The washed cells were resuspended in 200 μL PBS buffer and the sample was analyzed by FACS.
(Flow cytometry measures light scatter and fluorescence of single cells or particles in a stream.)

B1: TCP002-C (bispecific antibody, human IgG4 S228P)
chain: QLQLGASGGGLVQPGGSLRLSCALSGFTLRELDEFAIGWFRQAPGKEREGVSCISGTGGITHYADSVKGRFTISRDIAKTTVYLQMNSLNSEDTAVYYCAADERCTDRLIRPPTYWGQGTQVTVSSGGGGSAAA[letters of human IgG4 Fc with S228P (EU numbers) left out]GGGGSGGGGSGGGGSQVQLVESGGGLVQPGGSLRLSCAASGSITSIYAIGWYRQAPGKLRELVAAITTSGNTFYRDSVKGRFTISRDNAKNTVSLQMNSLKSEDTAVYDCNGAPWGDHAPLVVSWDQGTQVTVSS
notes: It carries no tag; also called BCMA-TCP
With B1, in the assay with BCMA-His antigen, the Kd came out at 17.9 nM, the koff was found to be 0.000482 s⁻¹ and the kon came out at 26900 M⁻¹ s⁻¹. Further, in the assay with BCMA expressed on cells, the concentration for a half-maximal effect (EC50) is 11.7 nM.
